{
  "source": "paper PMC7511233",
  "experiment_in_all_cases": "SEC; SEC analysis of purified properdin preparations prior to use (24 ml Superdex 200 increase, 20 mM HEPES/150 mM NaCl, pH 7.5, named for the purification)",
  "conditions_in_all_cases": "remark: other sources report otherwise",
  "key": {"[1]": {"molecular_target": "T1, purified serum properdin (human), P27918", "T1 chain": "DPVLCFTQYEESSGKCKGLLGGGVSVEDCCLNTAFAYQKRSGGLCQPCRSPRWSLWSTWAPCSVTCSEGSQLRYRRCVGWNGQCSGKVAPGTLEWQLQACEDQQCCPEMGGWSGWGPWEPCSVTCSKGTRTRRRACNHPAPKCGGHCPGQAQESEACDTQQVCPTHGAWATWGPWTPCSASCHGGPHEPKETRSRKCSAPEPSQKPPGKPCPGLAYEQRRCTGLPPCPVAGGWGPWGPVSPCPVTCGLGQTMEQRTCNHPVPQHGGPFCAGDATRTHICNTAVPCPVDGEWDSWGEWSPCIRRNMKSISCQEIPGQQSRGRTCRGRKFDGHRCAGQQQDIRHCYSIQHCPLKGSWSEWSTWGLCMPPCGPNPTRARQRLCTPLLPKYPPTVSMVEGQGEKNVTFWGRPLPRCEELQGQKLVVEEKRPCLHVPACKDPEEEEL"}, "[2]": {"molecular_target": "T2, recombinant wild type properdin, dimer and trimer fraction (human), P27918", "T2 chain": "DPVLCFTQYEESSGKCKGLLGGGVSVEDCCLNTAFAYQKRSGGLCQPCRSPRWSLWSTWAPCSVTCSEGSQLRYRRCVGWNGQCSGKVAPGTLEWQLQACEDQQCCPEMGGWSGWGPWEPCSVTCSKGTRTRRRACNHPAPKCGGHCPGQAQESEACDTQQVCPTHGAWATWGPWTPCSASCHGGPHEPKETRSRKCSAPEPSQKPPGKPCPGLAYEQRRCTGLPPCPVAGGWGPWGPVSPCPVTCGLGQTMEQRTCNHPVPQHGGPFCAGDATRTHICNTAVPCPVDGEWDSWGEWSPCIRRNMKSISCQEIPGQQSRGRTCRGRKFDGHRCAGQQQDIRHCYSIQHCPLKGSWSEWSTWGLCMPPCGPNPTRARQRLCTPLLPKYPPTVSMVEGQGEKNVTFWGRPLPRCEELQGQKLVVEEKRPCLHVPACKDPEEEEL"}, "[3]": {"molecular_target": "T3, recombinant wild type properdin, tetramer fraction (human), P27918", "T3 chain": "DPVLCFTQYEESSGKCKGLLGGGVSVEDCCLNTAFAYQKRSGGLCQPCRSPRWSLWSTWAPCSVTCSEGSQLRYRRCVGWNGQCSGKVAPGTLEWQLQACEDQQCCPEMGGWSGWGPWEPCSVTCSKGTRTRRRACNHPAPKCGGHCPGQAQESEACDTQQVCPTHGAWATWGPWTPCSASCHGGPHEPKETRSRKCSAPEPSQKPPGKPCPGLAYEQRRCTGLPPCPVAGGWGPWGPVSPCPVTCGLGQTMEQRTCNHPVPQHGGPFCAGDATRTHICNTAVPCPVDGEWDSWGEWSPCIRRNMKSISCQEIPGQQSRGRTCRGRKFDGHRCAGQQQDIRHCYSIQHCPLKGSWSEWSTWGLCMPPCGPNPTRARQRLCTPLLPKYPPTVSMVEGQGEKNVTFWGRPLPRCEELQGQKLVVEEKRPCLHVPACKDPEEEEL"}},
  "note": "Where “and” joins values, the source holds several entries; their conditions need not be identical. Identical values can stand only once.",
  "data": [
    {"binder": "purified serum properdin, P27918 28-469 (natural protein) DPVLCFTQYEESSGKCKGLLGGGVSVEDCCLNTAFAYQKRSGGLCQPCRSPRWSLWSTWAPCSVTCSEGSQLRYRRCVGWNGQCSGKVAPGTLEWQLQACEDQQCCPEMGGWSGWGPWEPCSVTCSKGTRTRRRACNHPAPKCGGHCPGQAQESEACDTQQVCPTHGAWATWGPWTPCSASCHGGPHEPKETRSRKCSAPEPSQKPPGKPCPGLAYEQRRCTGLPPCPVAGGWGPWGPVSPCPVTCGLGQTMEQRTCNHPVPQHGGPFCAGDATRTHICNTAVPCPVDGEWDSWGEWSPCIRRNMKSISCQEIPGQQSRGRTCRGRKFDGHRCAGQQQDIRHCYSIQHCPLKGSWSEWSTWGLCMPPCGPNPTRARQRLCTPLLPKYPPTVSMVEGQGEKNVTFWGRPLPRCEELQGQKLVVEEKRPCLHVPACKDPEEEEL", "values": [
      {"measurement": "stoichiometry N", "setting": "[1]", "result": "2 and 3 and 4"}
    ]},
    {"binder": "recombinant wild type properdin, dimer and trimer fraction, P27918 28-469 (natural protein) DPVLCFTQYEESSGKCKGLLGGGVSVEDCCLNTAFAYQKRSGGLCQPCRSPRWSLWSTWAPCSVTCSEGSQLRYRRCVGWNGQCSGKVAPGTLEWQLQACEDQQCCPEMGGWSGWGPWEPCSVTCSKGTRTRRRACNHPAPKCGGHCPGQAQESEACDTQQVCPTHGAWATWGPWTPCSASCHGGPHEPKETRSRKCSAPEPSQKPPGKPCPGLAYEQRRCTGLPPCPVAGGWGPWGPVSPCPVTCGLGQTMEQRTCNHPVPQHGGPFCAGDATRTHICNTAVPCPVDGEWDSWGEWSPCIRRNMKSISCQEIPGQQSRGRTCRGRKFDGHRCAGQQQDIRHCYSIQHCPLKGSWSEWSTWGLCMPPCGPNPTRARQRLCTPLLPKYPPTVSMVEGQGEKNVTFWGRPLPRCEELQGQKLVVEEKRPCLHVPACKDPEEEEL", "values": [
      {"measurement": "stoichiometry N", "setting": "[2]", "result": "2 and 3"}
    ]},
    {"binder": "recombinant wild type properdin, tetramer fraction, P27918 28-469 (natural protein) DPVLCFTQYEESSGKCKGLLGGGVSVEDCCLNTAFAYQKRSGGLCQPCRSPRWSLWSTWAPCSVTCSEGSQLRYRRCVGWNGQCSGKVAPGTLEWQLQACEDQQCCPEMGGWSGWGPWEPCSVTCSKGTRTRRRACNHPAPKCGGHCPGQAQESEACDTQQVCPTHGAWATWGPWTPCSASCHGGPHEPKETRSRKCSAPEPSQKPPGKPCPGLAYEQRRCTGLPPCPVAGGWGPWGPVSPCPVTCGLGQTMEQRTCNHPVPQHGGPFCAGDATRTHICNTAVPCPVDGEWDSWGEWSPCIRRNMKSISCQEIPGQQSRGRTCRGRKFDGHRCAGQQQDIRHCYSIQHCPLKGSWSEWSTWGLCMPPCGPNPTRARQRLCTPLLPKYPPTVSMVEGQGEKNVTFWGRPLPRCEELQGQKLVVEEKRPCLHVPACKDPEEEEL", "values": [
      {"measurement": "stoichiometry N", "setting": "[3]", "result": 4}
    ]}
  ]
}
